According to the supplement of paper PMC8728848:
This is one part of the list.

What was measured:
Assay in all cases: glycan array binding signal (z-score within array); higher = stronger binding
Settings in all cases: glycan notation: IUPAC condensed, linker removed
[1] = molecular target: Gal(b1-4)GlcNAc(b1-3)GalNAc
How it was run: (§1)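 Glycan array binding is given as a within-array Z-score, which can be read as non-binding when negative. The arrays, 3228 of them, came from the Consortium for Functional Glycomics database and were retained only where the protein sequence was available. Z-scores were averaged across arrays of the same protein sequence at different concentrations or buffers and across linkers.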

[2] = molecular target: Gal(b1-4)GlcNAc(b1-3)[Fuc(a1-3)GlcNAc(b1-6)]Gal(b1-4)Glc
How it was run: as §1

[3] = molecular target: Gal(b1-4)GlcNAc(b1-3)[Gal(b1-4)GlcNAc(b1-6)]Gal(b1-4)GlcNAc
How it was run: as §1

[4] = molecular target: Gal(b1-4)GlcNAc(b1-3)[Gal(b1-4)GlcNAc(b1-6)]GalNAc
How it was run: as §1

[5] = molecular target: Gal(b1-4)GlcNAc(b1-3)[GlcNAc(b1-6)]Gal(b1-4)GlcNAc
How it was run: as §1

[6] = molecular target: Gal(b1-4)GlcNAc(b1-6)Gal(b1-4)GlcNAc
How it was run: as §1

[7] = molecular target: Gal(b1-4)GlcNAc(b1-6)GalNAc
How it was run: as §1

[8] = molecular target: Gal(b1-4)GlcNAc(b1-6)[Gal(b1-3)]GalNAc
How it was run: as §1

[9] = molecular target: Gal(b1-4)GlcNAc(b1-6)[Gal(b1-4)GlcNAc(b1-3)]GalNAc
How it was run: as §1

[10] = molecular target: Gal(b1-4)GlcNAc6P
How it was run: as §1

[11] = molecular target: Gal(b1-6)Gal
How it was run: as §1

[12] = molecular target: Gal3S(b1-3)GalNAc
How it was run: as §1

[13] = molecular target: Gal3S(b1-3)GlcNAc
How it was run: as §1

[14] = molecular target: Gal3S(b1-3)[Fuc(a1-4)]GlcNAc
How it was run: as §1

[15] = molecular target: Gal3S(b1-4)Glc
How it was run: as §1

[16] = molecular target: Gal3S(b1-4)Glc6S
How it was run: as §1

[17] = molecular target: Gal3S(b1-4)GlcNAc
How it was run: as §1

[18] = molecular target: Gal3S(b1-4)GlcNAc6S
How it was run: as §1

[19] = molecular target: Gal3S(b1-4)[Fuc(a1-3)]Glc
How it was run: as §1

[20] = molecular target: Gal3S(b1-4)[Fuc(a1-3)]Glc6S
How it was run: as §1

[21] = molecular target: Gal3S(b1-4)[Fuc(a1-3)]GlcNAc
How it was run: as §1

[22] = molecular target: Gal3S(b1-4)[Fuc(a1-3)]GlcNAc6S
How it was run: as §1

[23] = molecular target: Gal3S4S(b1-4)GlcNAc
How it was run: as §1

[24] = molecular target: Gal3S6S(b1-4)GlcNAc
How it was run: as §1

[25] = molecular target: Gal3S6S(b1-4)GlcNAc6S
How it was run: as §1

[26] = molecular target: Gal4S(b1-4)GlcNAc
How it was run: as §1

[27] = molecular target: Gal4S6S(b1-4)GlcNAc
How it was run: as §1

[28] = molecular target: Gal6P(b1-4)GlcNAc
How it was run: as §1

[29] = molecular target: Gal6S(b1-3)GlcNAc
How it was run: as §1

[30] = molecular target: Gal6S(b1-3)GlcNAc6S
How it was run: as §1

[31] = molecular target: Gal6S(b1-4)Glc
How it was run: as §1

[32] = molecular target: Gal6S(b1-4)Glc6S
How it was run: as §1

[33] = molecular target: Gal6S(b1-4)GlcNAc
How it was run: as §1

[34] = molecular target: Gal6S(b1-4)GlcNAc6S
How it was run: as §1

[35] = molecular target: GalNAc(a1-3)Gal
How it was run: as §1

[36] = molecular target: GalNAc(a1-3)GalNAc
How it was run: as §1

[37] = molecular target: GalNAc(a1-3)GalNAc(a1-3)Gal(a1-4)Gal(b1-4)GlcNAc
How it was run: as §1

[38] = molecular target: GalNAc(a1-3)GalNAc(b1-3)Gal(a1-4)Gal(b1-4)Glc
How it was run: as §1

[39] = molecular target: GalNAc(a1-3)GalNAc(b1-3)Gal(a1-4)Gal(b1-4)GlcNAc
How it was run: as §1

[40] = molecular target: GalNAc(b1-3)Gal
How it was run: as §1

[41] = molecular target: GalNAc(b1-3)Gal(a1-4)Gal(b1-4)GlcNAc
How it was run: as §1

[42] = molecular target: GalNAc(b1-3)Gal(a1-4)Gal(b1-4)GlcNAc(b1-3)Gal(b1-4)Glc
How it was run: as §1

[43] = molecular target: GalNAc(b1-3)Gal(a1-6)Gal(b1-4)Glc
How it was run: as §1

[44] = molecular target: GalNAc(b1-3)GalNAc
How it was run: as §1

[45] = molecular target: GalNAc(b1-3)GlcNAc
How it was run: as §1

B1: PA-IL (Pseudomonas aeruginosa), Q05097 (protein)
chain: MAWKGEVLANNEAGQVTSIIYNPGDVITIVAAGWASYGPTQKWGPQGDREHPDQGLICHDAFCGALVMKIGNSGTIPVNTGLFRWVAPNNVQGAITLIYNDVPGTYGNNSGSFSVNIGKDQS
- glycan array binding signal (z-score) [1]: -0.223
- glycan array binding signal (z-score) [2]: -0.157
- glycan array binding signal (z-score) [3]: -0.028
- glycan array binding signal (z-score) [4]: -0.216
- glycan array binding signal (z-score) [5]: -0.179
- glycan array binding signal (z-score) [6]: -0.235
- glycan array binding signal (z-score) [7]: -0.213
- glycan array binding signal (z-score) [8]: -0.219
- glycan array binding signal (z-score) [9]: -0.19
- glycan array binding signal (z-score) [10]: -0.226
- glycan array binding signal (z-score) [11]: 0.287
- glycan array binding signal (z-score) [12]: -0.215
- glycan array binding signal (z-score) [13]: -0.229
- glycan array binding signal (z-score) [14]: -0.225
- glycan array binding signal (z-score) [15]: -0.23
- glycan array binding signal (z-score) [16]: -0.228
- glycan array binding signal (z-score) [17]: -0.219
- glycan array binding signal (z-score) [18]: -0.223
- glycan array binding signal (z-score) [19]: -0.23
- glycan array binding signal (z-score) [20]: -0.083
- glycan array binding signal (z-score) [21]: -0.236
- glycan array binding signal (z-score) [22]: -0.233
- glycan array binding signal (z-score) [23]: -0.222
- glycan array binding signal (z-score) [24]: -0.233
- glycan array binding signal (z-score) [25]: -0.22
- glycan array binding signal (z-score) [26]: -0.227
- glycan array binding signal (z-score) [27]: -0.225
- glycan array binding signal (z-score) [28]: -0.274
- glycan array binding signal (z-score) [29]: -0.224
- glycan array binding signal (z-score) [30]: -0.223
- glycan array binding signal (z-score) [31]: -0.225
- glycan array binding signal (z-score) [32]: -0.234
- glycan array binding signal (z-score) [33]: -0.232
- glycan array binding signal (z-score) [34]: -0.225
- glycan array binding signal (z-score) [35]: 0.41
- glycan array binding signal (z-score) [36]: 0.409
- glycan array binding signal (z-score) [37]: 0.29
- glycan array binding signal (z-score) [38]: 0.067
- glycan array binding signal (z-score) [39]: 0.119
- glycan array binding signal (z-score) [40]: -0.229
- glycan array binding signal (z-score) [41]: -0.23
- glycan array binding signal (z-score) [42]: -0.228
- glycan array binding signal (z-score) [43]: -0.225
- glycan array binding signal (z-score) [44]: -0.219
- glycan array binding signal (z-score) [45]: -0.221
